Results taken from paper PMC9068801.
These are yes or no findings as the source states them, for the method shown. Binding seen in cells or lysates may run through a third protein. Some entries that bind do so weakly or less than the wild type. Where a sequence is shown, tags or fusion partners need not be part of it.

The chains behind the UniProt entries cited, without tags or fusion partners.
UniProt Q39026: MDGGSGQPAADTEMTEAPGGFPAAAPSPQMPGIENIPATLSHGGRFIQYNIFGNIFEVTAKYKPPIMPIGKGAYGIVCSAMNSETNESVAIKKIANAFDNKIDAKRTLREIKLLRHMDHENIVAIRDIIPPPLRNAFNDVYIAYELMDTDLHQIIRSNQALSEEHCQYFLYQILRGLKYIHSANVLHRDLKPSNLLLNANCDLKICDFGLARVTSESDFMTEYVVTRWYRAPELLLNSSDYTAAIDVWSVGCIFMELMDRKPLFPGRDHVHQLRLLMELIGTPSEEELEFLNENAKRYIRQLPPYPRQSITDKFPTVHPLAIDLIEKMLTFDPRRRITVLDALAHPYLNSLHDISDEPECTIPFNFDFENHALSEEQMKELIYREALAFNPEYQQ

Assays:
[1] = biological target: T1, SCRM-cYFP (Arabidopsis thaliana) (UniProt Q9LSE2); assay: split reporter; BiFC with nYFP and cYFP fusions transiently co-expressed in N. benthamiana leaf epidermal cells; confocal microscopy 3-4 days after infiltration
T1 sequence: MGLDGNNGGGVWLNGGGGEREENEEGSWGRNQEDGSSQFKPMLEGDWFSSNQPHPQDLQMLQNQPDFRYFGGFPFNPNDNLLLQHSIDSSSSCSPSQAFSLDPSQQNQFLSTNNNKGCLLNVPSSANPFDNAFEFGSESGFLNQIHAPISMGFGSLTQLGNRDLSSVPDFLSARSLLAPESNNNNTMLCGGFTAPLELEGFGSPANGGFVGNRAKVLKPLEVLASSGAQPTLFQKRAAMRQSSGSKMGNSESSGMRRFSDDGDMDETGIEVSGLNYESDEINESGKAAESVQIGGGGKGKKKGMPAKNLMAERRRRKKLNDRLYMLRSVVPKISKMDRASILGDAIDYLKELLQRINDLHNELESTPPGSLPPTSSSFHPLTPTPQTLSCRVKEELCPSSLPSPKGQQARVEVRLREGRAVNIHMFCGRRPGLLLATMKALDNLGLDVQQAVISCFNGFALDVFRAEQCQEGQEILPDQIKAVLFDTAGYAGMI

[2] = biological target: T2, SPCH-cYFP (Arabidopsis thaliana) (UniProt Q700C7); assay: as above
T2 sequence: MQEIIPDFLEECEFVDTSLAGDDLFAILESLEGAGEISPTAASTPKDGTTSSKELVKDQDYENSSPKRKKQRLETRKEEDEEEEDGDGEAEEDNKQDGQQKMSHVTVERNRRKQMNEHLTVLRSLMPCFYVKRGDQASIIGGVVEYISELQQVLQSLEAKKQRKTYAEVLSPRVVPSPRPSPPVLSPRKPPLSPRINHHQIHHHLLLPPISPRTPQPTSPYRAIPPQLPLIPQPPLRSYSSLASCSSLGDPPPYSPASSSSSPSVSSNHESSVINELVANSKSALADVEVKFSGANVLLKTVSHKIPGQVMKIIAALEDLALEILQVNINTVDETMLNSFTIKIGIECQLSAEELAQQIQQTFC

[3] = biological target: cYFP-tagged MPK6 (Arabidopsis thaliana) (UniProt Q39026); assay: as above
[4] = biological target: MPK6-YFP (Arabidopsis thaliana) (UniProt Q39026); assay: co-IP; YFP or MPK6-YFP co-expressed with BSL2-FLAG or BSU1-FLAG in N. benthamiana leaves; total protein extract on GFP-Trap agarose, 4 °C, 3 h; washed three times; detected by anti-FLAG

B1: nYFP-tagged BSL2 (enzyme, UniProt Q9SJF0 1-1018)
chain: MDEDSSMVADNDQDREFQSLDGGQSPSPMERETPQQMNDQSPPPEGGSVPTPPPSDPNPATSQQQAAAVVGQEQQPALVVGPRCAPTYSVVDAMMDKKEDGPGPRCGHTLTAVPAVGDEGTPGYIGPRLVLFGGATALEGNSGGTGTPTSAGSAGIRLAGATADVHCYDVLSNKWTRLTPFGEPPTPRAAHVATAVGTMVVIQGGIGPAGLSAEDLHVLDLTQQRPRWHRVVVQGPGPGPRYGHVMALVGQRYLMAIGGNDGKRPLADVWALDTAAKPYEWRKLEPEGEGPPPCMYATASARSDGLLLLCGGRDANSVPLASAYGLAKHRDGRWEWAIAPGVSPSSRYQHAAVFVNARLHVSGGALGGGRMVEDSSSVAVLDTAAGVWCDTKSVVTSPRTGRYSADAAGGDASVELTRRCRHAAAAVGDLIFIYGGLRGGVLLDDLLVAEDLAAAETTYAASHAAAAAATNSPPGRLPGRYGFSDERNRELSESAADGAVVLGSPVAPPVNGDMHTDISPENALLPGTRRTNKGVEYLVEASAAEAEAISATLAAAKARQVNGEVELPDRDCGAEATPSGKPTFSLIKPDSMGSMSVTPAGIRLHHRAVVVAAETGGALGGMVRQLSIDQFENEGRRVSYGTPESATAARKLLDRQMSINSVPKKVIAHLLKPRGWKPPVRRQFFLDCNEIADLCDSAERIFASEPTVLQLKAPIKIFGDLHGQFGDLMRLFDEYGSPSTAGDISYIDYLFLGDYVDRGQHSLETISLLLALKVEYQHNVHLIRGNHEAADINALFGFRIECIERMGERDGIWVWHRINRLFNWLPLAASIEKKIICMHGGIGRSINHVEQIENIQRPITMEAGSIVLMDLLWSDPTENDSVEGLRPNARGPGLVTFGPDRVMEFCNNNDLQLIVRAHECVMDGFERFAQGHLITLFSATNYCGTANNAGAILVLGRDLVVVPKLIHPLPPALSSPETSPERHIEDTWMQELNANRPATPTRGRPQNSNDRGGSLAWM
binding [1]: no binding | binding [2]: no binding | binding [3]: binds

B2: BSL2-FLAG (enzyme, UniProt Q9SJF0 1-1018)
chain: B1 chain
binding [4]: binds
